Data as given in the supplement of paper PMC10126150.
Sequences with one replicate were seen in a single cluster, so their values are uncertain.

Test system: ATP
Assay: switch fluorescence ratio, 500 uM ATP over buffer (Cy3 cluster intensity, sum of 5 cycles each) (fold (ratio)); higher = stronger signal-on switching upon ATP binding; sequences stand for … in TCGTCGGCAGCGTCAGATGTGTATAAGAGACAGTTTTTTTTTTTTTTTTTTTTTTTTT…TC
Details: aptamer strand: ATP DNA aptamer (quencher-CACCTGGGGGAGTATTGCGGAGGAAGG + anchor), 100 nM annealed; ATP concentration: 500 uM; one replicate
In short: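 After annealing to 100 nM quencher-labelled ATP aptamer, Cy3-labelled switching-strand clusters on a modified Illumina MiSeq flow-cell were imaged in selection buffer. A second image followed after 15 min with 500 uM ATP at 22 °C, and five such buffer/ATP cycles were done, each separated by NaOH stripping and re-annealing. The fluorescence ratio, averaged per switch-domain sequence, is summed target-cycle over summed buffer-cycle Cy3 intensity per cluster, with clusters outside 100-1000 RFU excluded.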
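Note: ATP exposure 15 min at 22 °C before imaging.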

Sequence	switch fluorescence ratio
GTTAGGGTAA	1.06
CAACCATGTG	1.24
TACATGCGTA	0.908
CAGGGTTTA	1.05
ATCCCGGTAG	0.996
TATTTAGAGA	0.973
CTCTCCTAGG	3.99
ACGTATTGAC	1.06
GCGAGGCGGA	1.03
TAACGTGCAG	1
AATTCAATG	1.01
TCTCCATGGA	1.01
TCTCCAAGG	1.2
GTCGGTGAA	0.974
TGTGGCGCCG	0.996
AGGCGCAGTT	1.03
TTGACTCGG	0.987
TCCGGGTGAC	1.52
GACGAGGGTG	1.07
AGATACAATC	1
TTCGACTATG	0.994
TGCATCACTA	1
ACAAAGGACG	0.929
TTCAACTATC	1.03
GAATAGACGG	1.01
GGAGGTCAGT	0.984

Sequence	switch fluorescence ratio
ATAGCAAATG	1.04
GTTGGCCGTT	0.971
ATTGTTTTAT	1.01
ACGGGTCAGG	1.03
GATGGTAGGA	1
AACTGCATGG	1.06
CTGGGTTTGC	0.961
AAGGACCCCA	1.07
TTACTTCATC	1.02
CACTAGGCGT	1.01
ATAGGGGCGA	1.01
GGCCGGACGA	1.03
AGCGAGGA	1.03
CCTGTGACGA	1.07
AGAAGAAGAT	1.03
GGACTTGTGT	1
GGGAGTGGCT	1.02
ACTTGACGT	1.11
TAAGCGCATA	1.18
GGATAAGAGC	1.07
TATCACGTGG	1.03
TGAAGCGAGC	1.01
GCCGTCCTGC	1.01
TCCTTTTGCT	0.965
AGATGGTGGT	0.972
ATGAGGATCT	1.03

Sequence	switch fluorescence ratio
CGTACCCAAT	1.3
GGTACTCGGA	0.955
TACGAAAGTA	0.991
CCGTAATTTA	1.8
CAGGTTTTAA	1.03
AGTGTAAT	1.04
ATTGCTATTT	0.967
CGTAACGGA	0.973
CTGAGCTTGG	0.981
CCGCGCCTGT	1.22
TTCTCTCTTA	0.992
AAGGAACTTG	1.04
CTGGACGTG	0.952
ATAAAGTGAG	0.992
CAATGATAAC	1.04
AGTGGTCGCC	1.01
GTTAGCAACG	1.03
TTAGGATAAC	1.01
GCTTATGCGT	1.02
TGAGACGTGT	1
GATCTCAGGC	0.969
CCATCCTGTT	0.977
GCATGTATCA	1.01
GCTCACGCTG	1.23
ATAGCTGTGG	0.968
TAAGACCTGC	1.12

Sequence	switch fluorescence ratio
TGTGATGTTT	0.999
AGTCTAGA	0.982
GGTTGGCCGA	0.99
TAGCGCATTG	1.09
CGGTGTACTT	0.978
CTGAGCTCGG	1
GGATGCGT	0.957
GGACCATCGT	1.01
AGTACCCTGC	1.04
TTCGGGTATA	0.972
ATAAGAGTTA	1.04
TACGGTTGTC	1.06
TTGTTGGGCG	1.05
GAATAGTGCG	1.02
ACCCACCTAC	1.48
TTTCAGCCGT	1.03
AGAATTTCCC	1.04
GCTGATACG	1.06
AGCGGCATTT	1
CAATATTTAG	0.957
TCATTCTCAA	1.05
TTCAATGGTA	1.03
TTCCAGTATC	1.05
TCGTGGACCC	1
AGTTCATGCG	1.04
CTCAATTTTT	0.983

Sequence	switch fluorescence ratio
CGTGACCAGC	1.03
CAAAGCATCG	0.998
TCGTTTTAC	1.22
TTAAAGTCGC	0.977
TTCGTTCCCT	1
GTTTATGGAG	0.985
CGGTTCGCCG	0.996
CCTTTAATTA	0.995
GCCCCTTTGC	1
GAGGAGAGC	1.03
GGTCGTGTAT	0.982
CAGCTCTACC	1.09
TAAGCAAATC	2.01
ACGTGAGCGG	0.967
GAATTTACGT	1.02
GCGAAAAGGC	1.03
GAGCATTATC	1.56
CTTTCGGCGC	1.69
ACTTGTTCGG	1
TTGAGTCCGC	2.01
GAGAAAAGCT	1.04
TCGGCAACTA	1.33
AGGCGACTGT	0.985
ATTATTCTGC	1.04
ACCTGCAACT	1.35
GTATATATGA	0.999

Sequence	switch fluorescence ratio
ACTGATGTC	1
GAATTTCCTT	1.01
GGTAACTCGA	1.01
TGAATATGC	1.13
CTGTGTCTAT	1
AAGCCGAGCG	1.06
GGCCGGGCGA	0.966
GCATGATT	0.996
TTTCGTTTGA	1.02
CCTAAGTTGA	1.03
ACGGTTGAAG	1.04
GCGATAGGTT	1
ACGGGGAGAT	1.06
CGCGTCCCG	1.03
CTTTGTAGGT	0.997
GAGGGCCGAG	0.954
GCAGCGTGCA	1.03
CATAGGTCGT	1.05
TGAACTGGTT	0.966
TGATAAGTGG	1.03
GTACGGGATA	1
GAATCAGTTC	0.972
ATCGTTAGTT	1
GAGACGGTTC	1.04
